From US20140187505A1, “Cardiac Glycosides to Treat Cystic Fibrosis and Other IL-8 Dependent Disorders” (priority 2002, published 2014)

Tested on: IL-8 secretion from cystic fibrosis lung epithelial IB3-1 cells
Conditions: suppression of IL-8 secretion from CF lung epithelial cells

Structure (SMILES) | Potency relative to digitoxin, %
CC(=O)O[C@H]1CC[C@@]2(C)[C@H](CC[C@@H]3[C@@H]2C[C@@H](OC(C)=O)[C@]2(C)[C@@H](C4=CC(=O)OC4)CC[C@]32O)C1 (single isomer, unassigned; diac) [digoxigenin3,12 diAC, digoxigenin 3,12 diAC] | <<0.1, %
CC(=O)O[C@H]1CC[C@]2(C=O)[C@H]3CC[C@]4(C)[C@@H](C5=CC(=O)OC5)CC[C@]4(O)[C@@H]3CC[C@]2(O)C1 [acetylstrophanthdin, acetyl-strophanthidin] | 0.8%
C[C@]12CC[C@H](O)C[C@H]1CC[C@@H]1[C@@H]2CC[C@]2(C)[C@@H](C3=CC(=O)OC3)CC[C@]12O [digitoxigenin] | 1.2%
C[C@]12CC[C@H](O)C[C@H]1CC[C@@H]1[C@@H]2C[C@@H](O)[C@]2(C)[C@@H](C3=CC(=O)OC3)CC[C@]12O [digoxigenin] | 2.6%
CO[C@H]1C[C@H](O[C@H]2CC[C@@]3(C)[C@H](CC[C@@H]4[C@@H]3CC[C@]3(C)[C@@H](C5=CC(=O)OC5)[C@@H](OC(C)=O)C[C@]43O)C2)O[C@@H](C)[C@@H]1O [oleandrin] | 43%
